Source: PMC4336329 (PLoS ONE, 2015)
Among all 310,000 compounds or so, about 14,000 (4.5%) showed an effect of 50% or more. The effect is printed as a negative number. Some of the results follow.

Each compound was assayed against human ether-à-go-go-related gene (hERG) potassium channel (human, UniProt Q12809) (assay: primary screen, population patch clamp on CHO cells stably expressing hERG).
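Also: peak tail current of the secondary pulse compared with the same well before compound.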

human ether-à-go-go-related gene (hERG) potassium channel, sequence (Q12809 whole entry, looked up): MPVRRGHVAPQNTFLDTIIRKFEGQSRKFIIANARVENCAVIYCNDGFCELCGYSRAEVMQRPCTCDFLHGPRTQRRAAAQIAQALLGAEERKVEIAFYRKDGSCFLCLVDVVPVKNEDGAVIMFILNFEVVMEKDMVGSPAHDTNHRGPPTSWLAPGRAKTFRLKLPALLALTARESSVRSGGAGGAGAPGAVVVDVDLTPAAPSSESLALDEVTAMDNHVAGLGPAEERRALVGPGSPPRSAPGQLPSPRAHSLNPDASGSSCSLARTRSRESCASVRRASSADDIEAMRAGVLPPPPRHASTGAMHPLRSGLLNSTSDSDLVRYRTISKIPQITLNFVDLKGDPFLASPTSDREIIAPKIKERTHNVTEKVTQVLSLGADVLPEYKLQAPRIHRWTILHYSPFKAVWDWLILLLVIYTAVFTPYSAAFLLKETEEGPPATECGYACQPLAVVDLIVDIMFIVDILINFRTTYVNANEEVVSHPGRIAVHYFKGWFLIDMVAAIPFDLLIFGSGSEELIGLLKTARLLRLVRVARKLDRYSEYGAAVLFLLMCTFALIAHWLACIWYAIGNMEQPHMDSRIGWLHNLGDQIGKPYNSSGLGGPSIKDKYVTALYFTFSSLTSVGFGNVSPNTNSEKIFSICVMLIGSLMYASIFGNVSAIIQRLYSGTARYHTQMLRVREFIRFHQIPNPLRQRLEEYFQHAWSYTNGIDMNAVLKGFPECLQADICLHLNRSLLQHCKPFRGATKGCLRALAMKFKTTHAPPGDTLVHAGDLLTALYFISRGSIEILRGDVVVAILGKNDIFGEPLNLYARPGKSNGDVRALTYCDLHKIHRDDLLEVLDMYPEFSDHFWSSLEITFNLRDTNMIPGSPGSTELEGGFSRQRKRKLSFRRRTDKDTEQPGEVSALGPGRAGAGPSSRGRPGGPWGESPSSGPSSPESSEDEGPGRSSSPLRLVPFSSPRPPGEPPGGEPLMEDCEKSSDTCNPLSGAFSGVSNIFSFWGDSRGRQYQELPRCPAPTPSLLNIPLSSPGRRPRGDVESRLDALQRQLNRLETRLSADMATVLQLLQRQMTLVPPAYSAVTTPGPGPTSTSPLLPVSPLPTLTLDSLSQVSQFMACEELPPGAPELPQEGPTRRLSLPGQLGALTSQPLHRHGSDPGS

Row | Structure (SMILES) | hERG current change (%, negative = inhibition) at 10uM
1 | CCc1c(O)nc(SCC(N)=O)n(-c2ccccc2F)c1=O | 7.56%
2 | CCC(Cc1ccccc1)NC(=O)C1CC1 (stereo not shown) | 15.3%
3 | COc1ccc2c(CC(=O)Nc3c(C)n(C)n(-c4ccccc4)c3=O)coc2c1 | 14.8%
4 | COC(=O)c1ccc(S(=O)(=O)N2CCCCC2)o1 | -1.96%
5 | CCOC(=O)C1=C(C)NC(=S)NC1c1ccc(OC(=O)c2ccco2)cc1 (stereo not shown) | -1.02%
6 | C#CCOCCOCCOCCNc1nc(N2CCN(C(=O)[C@H]([C@@H](C)CC)n3cc([C@@H](N)CO)nn3)CC2)nc(N2CCN(C(=O)[C@H](Cc3cc4ccccc4[nH]3)n3cc([C@@H](N)Cc4ccc(O)cc4)nn3)CC2)n1.Cl | 3.47%
7 | COc1cc(CC2C(=O)Nc3ccccc32)cc(C)c1O (stereo not shown) | 8.43%
8 | CCc1ccc(NC(=O)C2CCCN(S(=O)(=O)c3cccs3)C2)cc1 (stereo not shown) | 6.31%
9 | CCC(C)(C)C(=O)Nc1ccc(C(N)=O)cc1 | 0.733%
10 | CC(C)c1cc(C(=O)N/N=C/C(Br)=C/c2ccccc2)n[nH]1 | 9.49%
11 | Cc1ccc(C2(C)NC(=O)N(CC(=O)Nc3cc(S(=O)(=O)N4CCOCC4)ccc3C)C2=O)cc1 (stereo not shown) | -19.6%
12 | COc1cccc(C(=O)Nc2nnc(-c3ccccc3)s2)c1 | 11.8%
13 | COCc1cc(CN2CCN(C)CC2)c(O)c2ncccc12 | 22.7%
14 | COc1cccc(NC(=O)CSc2nnc(-c3cc(C)[nH]n3)n2N)c1 | 17.8%
15 | Cc1ccc(OCC(=O)NCCNC(=O)c2cnccn2)cc1 | 4.5%
16 | COc1cc(NC(=S)N2CCN(C(=O)C3CCCO3)CC2)c(OC)cc1Cl (stereo not shown) | -4.57%
17 | COc1ccc(N2CCN(C(=O)c3ccc(CS(=O)Cc4ccc(C)cc4)o3)CC2)cc1 (stereo not shown) | -18.3%
18 | COc1ccc(-c2cc(C(=O)NNC(=S)NC(=O)c3c(-c4ccccc4)noc3C)[nH]n2)cc1 | 36.8%
19 | O=C(CCNC(=O)c1ccccc1)Nc1ccc(F)c(Cl)c1 | 7.79%
20 | O=C1CCC(=O)N1CC(O)COc1ccccc1 (stereo not shown) | 4.87%
21 | O=C1/C(=C/c2cccnc2)SC(=S)N1c1ccc(F)cc1 | 36.2%
22 | COc1ccccc1CNC(=O)C1CCCN(S(=O)(=O)c2cccc3nsnc23)C1 (stereo not shown) | -9.08%

Row | Structure (SMILES) | hERG current change (%, negative = inhibition) at 10uM
23 | O=C(CSc1nnc2ccccn12)NCCN1C(=O)CSC1=O | 21.3%
24 | Cc1ccc(NC(=O)N2CCCC2C(=O)NCc2ccc(Cl)cc2)cc1 (stereo not shown) | 1.19%
25 | CC1CC(C)(C)CC2(C1)NC(=O)N(CC(=O)NCC(c1ccco1)N1CCCCC1)C2=O (stereo not shown) | -48.6%
26 | COC(=O)c1ccc(Nc2c([N+](=O)[O-])ccc3nonc23)cc1 | 15.6%
27 | O=C(CCN1CCCCC1)Nc1ccc(Cl)cc1C(=O)c1ccccc1 | -72.6%
28 | O=C(NC(=S)Nc1cccc2ncccc12)c1ccccc1 | 10.9%
29 | CC(Oc1ccccc1F)C(=O)NN (stereo not shown) | 10.5%
30 | Cc1cc(NC(=O)COC(=O)CCNS(=O)(=O)c2cccc(C(F)(F)F)c2)no1 | 10.6%
31 | C=CCc1ccccc1OCCn1nnc2ccccc21 | 8.75%
32 | COCCCn1c(SCC(=O)Nc2ccc3c(c2)OCCO3)nnc1-c1ccoc1C | -5.98%
33 | Fc1cccc(Cl)c1CSc1ccc(-c2cccnc2)nn1 | -68.9%
34 | COc1cc(/C=C2\SC(=S)N(NC(=O)c3ccc(O)c(OC)c3)C2=O)ccc1O | 16.6%
35 | COc1ccc(-c2nc(CS(=O)CC(=O)NCc3cccnc3)c(C)o2)cc1 (stereo not shown) | 2.52%
36 | CCOC(=O)c1c(-c2ccc(C)c(C)c2)csc1NC(=O)C1CC=CCC1C(=O)O (stereo not shown) | -24.1%
37 | CCCN(CCC)C(=O)C1c2ccccc2Oc2ccccc21 | 10.3%
38 | Cc1cc(C)cc(OCC(=O)Nc2cc(NC(=O)COc3cc(C)cc(C)c3)cc(C(=O)O)c2)c1 | 15.2%
39 | COc1ccccc1/C=C/C(=O)NCC(=O)N/N=C/c1ccccc1 | 2.05%
40 | Cc1cccc(NC(=O)NCC2CC2)c1 | 4.74%
41 | COc1ccc(C(=O)CSc2nnc(CNC(=O)c3ccccc3)n2C)cc1 | 7.02%
42 | O=C(/C=C/c1ccc2c(c1)OCCO2)c1ccccc1 | -5.04%
43 | CCc1ccc(NC(=O)Cn2nc(C(F)(F)F)c3c2CCC3)cc1 | 3.82%
44 | CCCNC(=O)c1ccccc1NC(=O)c1cccc(-n2cnnn2)c1 | -22.3%

Row | Structure (SMILES) | hERG current change (%, negative = inhibition) at 10uM
45 | CCOc1ccccc1NC(=O)CSc1n[nH]c(=O)n1-c1ccccc1 | 12.6%
46 | CC(=O)Nc1ccc(C(=O)NCC(=O)OCc2ccccc2F)cc1 | 3.57%
47 | CCc1nnc(NC(=O)c2ccc(S(=O)(=O)N3CCCC(C)C3)cc2)o1 (stereo not shown) | 11.4%
48 | O=C(COc1ccc(S(=O)(=O)NCc2ccccc2)cc1Cl)NCc1ccncc1 | -15%
49 | COc1cc(OC)cc(C(=O)NC2CCSc3ccccc32)c1 (stereo not shown) | 10.7%
50 | O=C(N/N=C/c1ccc(O)cc1)c1cc(C23CC4CC(CC(C4)C2)C3)[nH]n1 | -3.27%
51 | Cc1nc(NS(=O)(=O)c2cccs2)c2c3c(sc2n1)CCC3 | 3.8%
52 | CN(C)c1ccc(NC2=C(Cl)C(=O)c3ccccc3C2=O)cc1 | 15.2%
53 | C=CCSc1nc2c(cnn2-c2ccc(C)c(C)c2)c(=O)[nH]1 | -11.3%
54 | CC(C)Oc1ccc(S(=O)(=O)N2CCOCC2)cc1NC(=O)C1=COCCO1 | 2.7%
55 | Cc1cccc(N2CCN(S(=O)(=O)c3ccc4c(c3)NC(=O)C(C)S4)CC2)c1C (stereo not shown) | -2.54%
56 | O=C(O)CCCC(=O)N1N=C(c2ccccc2)CC1c1ccc2nccnc2c1 (stereo not shown) | 2.35%
57 | Cc1ccc(/C=N/N2CCCCC2)o1 | 34.4%
58 | CC1=C(C#N)C(NC(=O)c2ccc(Cl)cc2)(C(F)(F)F)C(=O)N1 (stereo not shown) | -6.82%
59 | O=C1COc2ccc(C(=O)COC(=O)Cc3ccccc3)cc2N1 | -13%
60 | O=C(O)c1ccc(-c2ccco2)n1Cc1ccccc1 | 7.82%
61 | COCCOc1ccc(C(F)(F)F)cc1NC(=O)c1ccc(F)cc1 | 3.33%
62 | COc1ccc(Cl)cc1NC(=O)CN1CCN(Cc2ccccc2)CC1 | -68.9%
63 | Cn1nc(C(=O)N2CCCC2)c2ccccc2c1=O | 23%
64 | CCOC(=O)c1c(-c2cccs2)csc1NC(=O)CN1CC(C)OC(C)C1 (stereo not shown) | -0.145%
65 | CC(NC(=O)c1ccccc1C(=O)O)c1ccc(-n2ccnc2)cc1 (stereo not shown) | 16%
66 | CC1(C)C(C#N)=C(N)Oc2c1c(=O)oc1ccccc21 | 0.829%

Row | Structure (SMILES) | hERG current change (%, negative = inhibition) at 10uM
67 | CCOC(=O)C1CCCN(c2c(NCCN(CC)c3ccccc3)c(=O)c2=O)C1 (stereo not shown) | -14.8%
68 | Cc1cc(C(F)(F)F)c2sc(N)nc2n1 | 5.61%
69 | Cc1ccc(CN2CCCN(Cc3cc(C)ccc3C)S2(=O)=O)cc1 | 7.27%
70 | CCOC(=O)c1ccc(NC(=O)CN2C(=O)C(=O)N(CC(C)C)C2=O)cc1 | 3.66%
71 | COc1ccc2c(c1)[n+](=O)c(C(C)=O)c(C)n2[O-] | 6.81%
72 | CC(C)(C)NC(=O)NC(=O)COC(=O)c1nc(-c2ccccc2)n(-c2cccc(C(F)(F)F)c2)n1 | -2.43%
73 | COc1ccc(NC(=O)N2CCCC2C(=O)NCc2cccs2)cc1 (stereo not shown) | 9.81%
74 | O=S1(=O)CC2(N3CCOCC3)CCCCCCC21 (stereo not shown) | -19.8%
75 | CN(C)S(=O)(=O)c1cccc(NC(=O)COC(=O)/C=C/c2ccc(Br)o2)c1 | -25.9%
76 | Cc1ccc2oc(=O)c3cnn(CC(=O)Nc4ccccc4N4CCN(C)CC4)c3c2c1 | -11%
77 | O=[N+]([O-])c1ccccc1NCCOc1ccccc1 | 5.3%
78 | CCc1nnc(NC(=O)C2=NN(C3CCS(=O)(=O)C3)C(=O)CC2)s1 (stereo not shown) | 31.1%
79 | COc1cc(C)ccc1OCCOCCOc1ccc(C)cc1[N+](=O)[O-] | -36.1%
80 | O=C(Oc1nsnc1N1CCOCC1)N(c1ccccc1)c1ccccc1 | -32.5%
81 | Cc1cc(C(=O)NCc2cccs2)nn1C | 9.53%
82 | CCCCNC(=S)NCCN1CCN(C(=S)NCCCC)CC1.Cl | -8.2%
83 | O=C(O)c1cc(NS(=O)(=O)c2cccs2)cc(NS(=O)(=O)c2cccs2)c1 | 0.184%
84 | CN1CCN(S(=O)(=O)c2ccc(NC(=O)c3cccs3)cc2)CC1 | -11.3%
85 | Cc1cccc(C)c1NC(=O)CCCn1nc(C)c2c(C)n(-c3ccccc3)nc2c1=O | 3.28%
86 | O=C(O)c1[nH]c2ccccc2c1CC(=O)N1CCOCC1 | -1.46%
87 | CCOc1ccc(C2c3c(oc4ccccc4c3=O)C(=O)N2CCCN2CCOCC2)cc1OCC (stereo not shown) | 1.66%
88 | CCc1ccc(/C=C(\Cl)c2nc3cc(Cl)ccc3c(=O)[nH]2)cc1 | 20.5%
